Assay results: PubChem BioAssay AID1240 (Sanford-Burnham Center for Chemical Genomics, 2008)
The whole screen tested about 50,000 compounds, of which about 800 (1.6%) showed an effect of 50% or more. The list shows a part of the results.

Biological target: Bcl-2-like protein 10 (Homo sapiens) (UniProt Q9HD36)
Assay: TR3 peptide-Bcl-B binding displacers, biochemical primary FP assay, phenotype converters (AID 1240);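 note: 0% = Bcl-B with tracer peptide and DMSO and 100% = tracer peptide lacking Bcl-B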
Conditions: GST-Bcl-B / FITC-TR3 peptide fluorescence polarization; stronger effect = higher value; compound at 3.75 mg/L

Sequence of UniProt Q9HD36 (Q9HD36 whole entry, looked up): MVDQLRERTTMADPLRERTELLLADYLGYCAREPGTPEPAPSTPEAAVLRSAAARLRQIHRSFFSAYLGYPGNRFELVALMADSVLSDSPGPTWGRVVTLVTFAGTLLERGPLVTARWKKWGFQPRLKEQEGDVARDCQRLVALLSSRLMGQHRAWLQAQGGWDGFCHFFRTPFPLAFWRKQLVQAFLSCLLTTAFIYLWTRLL

SMILES	displacement [%]
C/C(=N\NC(=O)c1ccc(Cl)cc1O)c1ccc(Cl)cc1	36
N/N=C1\CCCc2c1[nH]c1ccc(C3CCCCC3)cc21	13.5
CCO/N=C1/CC(c2ccccc2)Cc2onc(C)c21 (configuration not stated)	3.7
Cc1ccc(S(=O)(=O)NC(C)(C)CN2CCN(CC(C)(C)NS(=O)(=O)c3ccc(C)cc3)CC2)cc1	12.7
O=C(Nc1cccnc1)N1CCOCC1	14
CSc1ccc(/C=N\NC(=O)c2cnccn2)cc1	109
Cc1ccc(OCC(O)CNC(C)C)cc1C (configuration not stated)	-6
CCOc1cc(/C=N/N=C2\NC(=O)C(CC(=O)O)S2)ccc1O (configuration not stated)	-32.4
Brc1ccc2[nH]c3c(c2c1)CCCC3=NCc1ccccc1	-7.9
Cc1ccc(C(=O)N/C(=C/c2ccc(Br)cc2)C(=O)NCC(=O)O)cc1	-4.9
COc1ccc2nc(NC(=O)COc3ccc(Cl)cc3)sc2c1	14.5
Cc1ccc(OCc2nc(-c3ccc(Cl)cc3Cl)no2)c(C)c1	-5.8
O=C(Nc1ccc(Cl)cc1)c1cc2ccccc2cc1O	7
COc1ccc(OC)c(NC(=O)c2ccc(N(C)S(=O)(=O)c3ccccc3)cc2)c1	13.1
CC(=O)c1ccc(NC(=O)Cc2ccc(Cl)cc2)cc1	0.8
O=C(Nc1cccc(Cl)c1)N(c1ccc(Cl)cc1)C1CCS(=O)(=O)C1 (configuration not stated)	-1.2
C#CCSc1nc2sc3c(c2c(=O)n1CC=C)CCCC3	16.8
CCOC(=O)c1cocc1C(=O)Nc1ccccc1C(=O)O	9.8
O=C1/C(=C/c2ccc(Br)o2)SC(=S)N1c1ccccc1	33.2
CCC(=O)Nc1ccc(NC(=O)c2cccc(Cl)c2Cl)cc1	11.4
CCN(O)C(C)(C)/C(=N/O)c1ccccc1	12.4
COc1ccc(C(=O)N2CCN(C(=O)c3ccccc3OC)CC2)cc1OC	-10.4
Cc1cc(Cl)ccc1OCC(=O)NCCO	11.2

SMILES	displacement [%]
O=C1/C(=C/c2ccc(F)cc2)SC(=S)N1c1ccc(Cl)cc1	16.4
O=C1NCC(c2ccccc2)C1C(=O)N/N=C\c1cc(O)c(Br)cc1Br (configuration not stated)	-9.4
C=CCNC(=O)C(=O)N/N=C/c1cccc(Br)c1	5.8
Cc1ccc(NC(=O)C2CC(=O)N(c3ccc(Br)cc3)C2)c(C)c1 (configuration not stated)	-7.4
Cc1nc(C)c(C(=O)/C=C(\O)C(=O)O)o1	-21.7
CCC(=O)NNC(=O)c1cc(=O)[nH]c2ccccc12	0.5
CC1=C(C(=O)Nc2ccc(C)c(Cl)c2)C(c2cccs2)NC(=O)N1 (configuration not stated)	3.8
Cc1ccc2c(c1)C(c1ccc(Cl)cc1Cl)CC(=O)N2 (configuration not stated)	4.3
O=c1oc2cc(OCc3c(F)cccc3Cl)ccc2c2ccccc12	10.5
O=C(Nc1nc(-c2ccc(F)cc2)cs1)c1cccs1	-0.9
CC(/C=C1\SC(=O)N(c2ccc(O)cc2)C1=O)=C\c1ccccc1	7.8
Cc1ccc(OCc2nnc(NC(=O)Nc3ccc(Cl)cc3)s2)c(C)c1	12.4
CC(C)Oc1ccccc1NC(=O)c1ccccc1SCc1ccc(F)cc1	-13.8
Cc1ccc(-c2cc(C(=O)N/N=C/c3cccc([N+](=O)[O-])c3)[nH]n2)cc1	-3.3
NC(=O)c1ccc(NC(=O)c2cccc(Cl)c2)cc1	0.1
COC(=O)c1ccccc1-c1ccc(/C=C2/C(=O)N(c3ccccc3)N=C2C)o1	3
N#C/C(=C/c1ccc(OCC(=O)O)cc1)C(=O)Nc1cccc(Br)c1	-8.9
Cc1ccc(N2CC(C(=O)OCC(=O)c3ccc(Br)cc3)CC2=O)c(C)c1 (configuration not stated)	12.7
Cc1ccc(/C=C(\C#N)c2nc(-c3cccc(Br)c3)cs2)o1	164
Cc1cccc(NC(=O)c2c(NC(=O)Cc3ccccc3)sc3c2CCC3)c1	3.6
CCOC(=O)c1ccc2[nH]c3c(c2c1)CCCC3O (configuration not stated)	-2.8
COc1ccc(N2C(=O)CC(SC(=NCc3ccc(Cl)cc3)Nc3ccccc3)C2=O)cc1 (configuration not stated)	7.2
CCOc1ccc(S(=O)(=O)Nc2cccnc2)c2ccccc12	12.3

SMILES	displacement [%]
O=C(COC(=O)CN1C(=O)c2ccccc2C1=O)Nc1cccc2ccccc12	-8.1
Cc1ccc(/C=N/N=C2\NC(=O)C(C)S2)cc1 (configuration not stated)	4.7
S=C(c1ccccc1)N1CCN(c2cccc(Cl)c2)CC1	10.5
CCN(CC)S(=O)(=O)c1ccc(N)cc1	-2.3
COc1ccc(CN2CCN(S(=O)(=O)c3ccc(C)cc3)CC2)cc1Br	12.8
COc1cc(OC)c(NC(=O)COc2ccc(F)cc2)cc1Cl	4.7
O=C(Nc1ccc(Cl)c(Cl)c1)C1C2CCC3C(CCC21)C3(Cl)Cl (configuration not stated)	10.2
CS(=O)(=O)N1CCN(C2CCN(Cc3ccccc3)CC2)CC1	-10.2
CCCSc1nnc(NC(=O)Nc2ccc(Cl)cc2)s1	8.2
O=C(CSCc1cccc(Cl)c1)N/N=C/c1ccc(OCC(=O)N2CCCCC2)cc1	-5
Cc1ccc(Cl)cc1NC(=O)c1ccccc1C(F)(F)F	9.3
COc1ccc(NC(=O)C(=O)NCCN2CCN(S(=O)(=O)c3ccc4ccccc4c3)CC2)cc1	10.6
CCOC(=O)COc1ccc(/C=N/N(C)c2ccccc2)cc1OC	1.2
O=C(Cc1ccc(Cl)cc1)N1CCN(c2ccccn2)CC1	2.5
O=C(NCC1(c2ccccc2)CCOCC1)c1ccccc1C(=O)c1ccccc1	0.5
COc1ccc(C(=O)Oc2ccc(Cl)cc2)cc1S(=O)(=O)N1CCOCC1	-17.2
Cc1cc(C=C2C(=O)NC(=O)NC2=O)c(C)n1-c1ccc(F)cc1	4.7
O=c1c([N+](=O)[O-])c(N2CCN(Cc3ccccc3)CC2)c2ccccc2n1-c1ccccc1	-10.9
Cc1ccc(-c2cc(C(=O)N/N=C/C=C/c3ccccc3)[nH]n2)cc1	-8.8
CCOC(=O)C(CCOCCOc1cc(C)cc(C)c1C)C(=O)OCC	-6.3
COc1cccc(C2C3=C(NCCN=C3c3ccccc3)C(=O)N2c2ccccc2)c1 (configuration not stated)	-0.7
O=C(N/N=C/C(Br)=C/c1ccccc1)c1cc(-c2ccco2)[nH]n1	-3.4
CCc1ccccc1NC(=O)c1cc2cc(OC)ccc2oc1=O	15.4

SMILES	displacement [%]
O=C(CC(Nc1cccc([N+](=O)[O-])c1)c1ccc(Cl)cc1)c1ccccc1 (configuration not stated)	-0.6
C(=Nc1ccccc1-c1ccccc1N=Cc1c[nH]c2ccccc12)c1c[nH]c2ccccc12	-11.6
Nc1nnc(CC(=O)NCc2ccccc2)s1	6.6
Cc1nc2ncccn2c1-c1csc(Nc2cccc(O)c2)n1	12.8
O=C(NCCc1c[nH]c2ccccc12)c1cccs1	11.9
CCCC(=O)Nc1cccc(NC(=O)COc2cc(C)ccc2C(C)C)c1	-2.3
CCOC(=O)COc1ccc(/C=C2\C(=O)NC(=O)N(c3ccc(OC)cc3)C2=O)cc1OC	0.6
CCN(CC)c1ccc(NC(=O)CCN2C(=O)c3ccccc3C2=O)cc1	14.3
Cc1ccccc1N(CC(=O)N1CCc2ccccc2C1)S(C)(=O)=O	9.6
S=C(NCCN1CCCCC1)NCc1ccccc1	3.1
COC(=O)Cn1c(O)c(N=NC(=O)c2cc(C)[nH]n2)c2ccccc21	-10.9
Cc1onc(-c2ccccc2Cl)c1C(=O)Nc1ccc(Cl)cc1F	0.4
O=C1CSC(c2ccc(Cl)cc2)N1 (configuration not stated)	4.1
CC(C)(CN1CCN(CC(C)(C)NS(=O)(=O)c2ccccc2)CC1)NS(=O)(=O)c1ccccc1	10.1
O=[N+]([O-])c1ccc2nc3c([nH]c4ccccc43)c(Cl)c2c1	-14.8
COc1ccc(NC(=O)c2cccc(Cl)c2)cc1Cl	9.8
COc1ccc(COC(=O)N/N=C(\C)CC(=O)Nc2c(C)cc(C)cc2C)cc1	3.8
O=C(O)c1cc(-c2cccc([N+](=O)[O-])c2)nc2ccccc12	4.8
CC1(C)CC(=O)C(=Cc2cn(-c3ccccc3)nc2-c2cccc([N+](=O)[O-])c2)C(=O)C1	6.1
O=C(Nc1ccccc1Oc1ccccc1)C(c1ccccc1)c1ccccc1	11.7
Cc1ccc(C(=O)Oc2cccc3ccc(C)nc23)cc1	-7
O=C1C(=Cc2ccc(Oc3ccc(C(F)(F)F)cc3[N+](=O)[O-])c(Cl)c2)C(=O)c2ccccc21	2.4
CC1=C(C(=O)OCC(F)(F)F)C(c2ccccc2)NC(=O)N1 (configuration not stated)	7.2

SMILES	displacement [%]
CCOC(=O)C(=O)Nc1cccc([N+](=O)[O-])c1C	-1.5
O=C(Nc1ccc(N2CCOCC2)cc1)c1ccccc1Br	6.6
COc1ccc(-c2nc3cc(N)ccc3o2)cc1OC	2.7
O=[N+]([O-])c1cccc(S(=O)(=O)N2CCN(c3ccccc3)CC2)c1	1.8
Cc1cccc(C2(c3cccc(C)c3)CC2C(=O)Nc2cc([N+](=O)[O-])ccc2O)c1 (configuration not stated)	-10.6
CCOC(=O)c1c(NC(=O)CCCOc2ccccc2)sc2c1CCC2	-3.9
CCOC(=O)c1c(NC(=O)c2ccccc2[N+](=O)[O-])sc2c1CCC(C)C2 (configuration not stated)	-8.6
OC1(C#Cc2ccccc2)CCN(Cc2ccccc2)CC1	-12
CC(C)NC(=O)C1C(C=C(Cl)Cl)C1(C)C (configuration not stated)	11.8
COc1ccc(CN2CCN(S(=O)(=O)c3ccc(C)cc3)CC2)cc1OCc1ccccc1	12.1
CCOc1ccc(S(=O)(=O)Nc2ccccc2OC)cc1	-1.3
COc1ccc(/C=C2\SC(=S)N(NC(=O)c3ccccc3Br)C2=O)cc1	-11.6
Brc1ccc(-c2nnc(SCc3ccccc3)o2)cc1	-4.5
O=C(CC(c1ccccc1)c1ccccc1)NCC1CCCO1 (configuration not stated)	6.3
CCCN(CCC)C(=O)c1cccc(Cl)c1	-6.9
O=C(Nc1cccc(OC(=O)c2cc(S(=O)(=O)N3CCCCC3)ccc2Cl)c1)c1ccco1	8.7
COc1ccccc1NC(=O)CN1C(=O)c2ccccc2C1=O	17.1
CCOC(=O)c1c(NC(=O)/C=C/c2ccco2)sc2c1CCCC2	10.1
CN(C)c1ccc(/C=N/N=C2/NC(=O)C(Cc3ccc(Cl)cc3)S2)cc1 (configuration not stated)	-6.1
CN(C)c1nc(-c2ccccc2)c(N)c(-c2ccccc2)n1	4
